Test results: PubChem BioAssay AID1508624 (National Center for Advancing Translational Sciences (NCATS), 2021)
Out of some 48,000 compounds screened, about 120 (0.25%) were called active. Roughly 4% stayed inconclusive and do not appear here. The call rests on the fitted dose curve; in most records, active means well fitted activation curve with a large enough effect; inconclusive means small, poorly fitted or top-dose-only effect, or another doubt; inactive means no such curve, though single readings can be large or run the other way. The list shows a part of the results.

Experiment: Primary qHTS for Identification of Small Molecule Activators of Huntingtin-Antisense Promoter Activity; further: nearly all actives have a fitted effect of over 55% in size
Conditions: HEK293 HTT-AS promoter firefly luciferase reporter, 24 h; series mostly up to 57.5 µM; activity change, positive = activation: at the top concentration
Procedure, shortened: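 Firefly luciferase signal from promoter-reporter HEK293 cells was scaled between vehicle (0%) and zero RLU (-100%). Compounds were tested at final concentrations of up to 57.5 uM over 24 h at 37 degrees C. PTC124 at 50 uM final served as control inhibitor.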

Activity change, positive = activation, inactive:
Cc1ccc(NC(=O)CSc2nc(=O)n(Cc3ccccn3)c3c2CCC3)cc1F -46%
COC(=O)c1c(NC(=O)Cc2coc3cc(C)cc(C)c23)sc2c1CCC2 -18.5%
COc1cc(C(=O)NCc2ccc3c(c2)CCN3C(=O)c2ccc(Cl)cc2)cc(OC)c1OC -24.3%
COCCNC(=O)c1c(NC(=O)c2cc(=O)c3cc(C)cc(C)c3o2)sc2c1CCCC2 0.521%
O=C(Nc1ccccc1Cl)N1CCC2(CC1)Oc1ccccc1C(=O)N2Cc1ccc(F)cc1 -26.8%
CCc1ccc(NC(=O)c2cnc3c(-c4ccccc4)c(C)nn3c2C)cc1 -17.9%
CC(=O)c1ccc(NC(=O)c2ccc(-c3nc(CSc4ccc(C)cc4)c(C)o3)cc2)cc1 -23.7%
COc1cccc(Cn2c(C)c(CNCc3cccc(C)c3)c(C(=O)O)c2C)c1 -20.5%
COc1ccccc1CNC(=O)CCn1c(=O)c2ccccc2n(CC(=O)Nc2cc(Cl)ccc2C)c1=O 1.61%
CCOC(=O)c1ccc(N2C(=O)c3[nH]nc(-c4ccc(OC)cc4)c3C2c2cccc(O)c2)cc1 (configuration not stated) -88%
CCc1cccc(NC(=O)CSc2ncc3c(n2)-c2cc(Cl)ccc2N(C)S3(=O)=O)c1 -6.18%
COc1ccccc1NC(=O)Cn1nnc(C(=O)NCc2cccs2)c1N -31.9%
O=c1cc(COc2ccccc2Cl)nc2scc(-c3ccccc3)n12 -9.93%
Cc1ccc(C2NC(=O)c3n[nH]c(-c4cccs4)c32)cc1 (configuration not stated) -18.5%
Cc1ccc(Cl)cc1N1CCN(C(=O)Cn2nc(C)c3sc4ccccc4c3c2=O)CC1 12.5%
CCC(C)NC(=O)CCSc1nc(-c2ccc3c(c2)OCO3)cc(C(F)(F)F)n1 (configuration not stated) -27.6%
COc1ccc(NC(=O)CCS(=O)(=O)c2nc(-c3ccc4c(c3)OCO4)cc(C(F)(F)F)n2)cc1OC -31.8%
O=C(Nc1cccc(C(=O)OCc2cc(=O)n3c4c(sc3n2)CCCC4)c1)c1cccc(F)c1 -7.07%
C[C@]12C=CC(=O)C=C1[C@@H](F)C[C@@H]1[C@@H]2[C@@H](O)C[C@@]2(C)[C@H]1CC[C@]2(O)C(=O)CO -5.69%
CCc1ccc(S(=O)(=O)Nc2ccc3c(c2)sc(=O)n3C)cc1 -14.6%
Cc1ccc(Cl)cc1NC(=O)CN1C=NS(=O)(=O)c2ccccc21 -15.7%
Cc1cccc(Cn2c(=O)n(-c3cc(C)cc(C)c3)c(=O)c3oc4ccccc4c32)c1 -18.7%
CCc1nn(CCCC(=O)NCc2ccccc2OC)c(=O)c2cc3occc3n12 -8.49%
Cc1cc(C)c2c(n1)nn1c(C)c(CCC(=O)Nc3cccc(C)c3C)c(C)nc21 5.86%
Cc1ccc(Cl)cc1N1CCN(C(=O)C2CCN(S(=O)(=O)c3cn(C)cn3)CC2)CC1 -9.88%
Cc1cccc(N2CCN(CCCNC(=O)Cn3ncc4c([nH]c5ccccc54)c3=O)CC2C)c1 (configuration not stated) -5.71%
COc1ccc(N(C)C(=O)Cn2cnc3sc(C)c(S(=O)(=O)N4CCN(c5ncccn5)CC4)c3c2=O)cc1 -2.07%
O=C(NCCS(=O)(=O)N1CCN(c2cccc(Cl)c2)CC1)C(c1ccccc1)c1ccccc1 -10.5%
CCc1nn(CC(=O)NCc2ccccc2)c(=O)c2cccn12 -1.96%
CCOCCCn1c(=N)c(C(=O)NC2CCCCC2)cc2c(=O)n3ccccc3nc21 -5.45%
O=C(CSc1nc2ccccc2nc1Cc1ccccc1)N1CCc2ccccc21 -2.91%
Cc1cccc(-c2nc3c4ccccc4nc(N4CCN(c5cccc(Cl)c5)CC4)n3n2)c1 11.5%
COc1ccc(-c2c3c(nc4sc(C(=O)Nc5cccc(OC)c5)c(N)c24)CC(C)(C)CC3=O)cc1 12.6%
CCc1ccccc1NC(=O)Cn1c(=O)n(CCc2ccccc2)c(=O)c2sc3ccccc3c21 0.604%
CC1(O)CC(c2nc(-c3ccc4ccc(-c5ccccc5)nc4c3)c3c(N)nccn23)C1 (configuration not stated) -21.3%
NC(=O)NC(=O)Cc1ccccc1 -7.61%
COc1ccc(CCNC(=O)c2ccc(Cn3c(=O)c4cccn4c4cccnc43)cc2)cc1OC -24.2%
Cc1cc(C(=O)N2CCN(c3ccccc3F)CC2)c2c(C)nn(-c3ccccc3)c2n1 -33.6%
Cc1cc(C)n2nc(CNS(=O)(=O)c3cccc(Cl)c3)nc2n1 -5.68%
CCCCN(C)C(=O)CSc1c2c(nc3ccc(Cl)cc13)CCCC2 -17%
CCC(C)NC(=O)c1ccc(CNS(=O)(=O)c2ccc3c(c2)C(C)(C)C(=O)N3C)cc1 (configuration not stated) -15.8%
Cc1cc(C)c2oc(-c3cccc(NC(=O)c4cccc(F)c4)c3C)nc2c1 -10.7%
CCOCCCNC(=O)c1ccc2c(=O)n(CCc3ccccc3)c(=O)[nH]c2c1 8.56%
CCc1ccc2oc(-c3cc(NC(=O)c4cc(OC)c(OC)c(OC)c4)ccc3O)nc2c1 15%
COc1cccc(N2CCN(C(=O)c3cnn(-c4ccccc4Cl)c3C3CCN(C(=O)OC(C)(C)C)CC3)CC2)c1 -21.8%
CCCCc1ccc(NS(=O)(=O)c2cc3c4c(c2)CC(=O)N4CCC3)cc1 -35.4%
COc1cc(Nc2ncc(F)c(Nc3ccc4c(n3)N(COP(=O)(O)O)C(=O)C(C)(C)O4)n2)cc(OC)c1OC -26.2%
COc1cccc(NC(=O)C2CCC(CNS(=O)(=O)c3csc(C(N)=O)c3)CC2)c1 (configuration not stated) 10.3%
CC(=O)c1ccc(NC(=O)CSc2nc(=O)n(Cc3ccccn3)c3c2CCC3)cc1 -22.9%
COc1cccc(-c2cn3c(n2)sc2cc(C(=O)NC4CCCCC4)ccc23)c1 -15.5%
CCc1ccccc1Nc1nn2c(=O)c3ccc(C(=O)NC(C)C)cc3nc2s1 -15.1%
CCN(CCCNC(=O)c1cc2c(=O)n(C)c3ccccc3c2s1)c1ccccc1 -15.6%
COc1cc(NC(=O)C2CCN(c3cnccn3)CC2)cc(OC)c1 -5.38%
O=C(Cn1c(=O)n(Cc2ccco2)c(=O)c2oc3ccccc3c21)Nc1ccccc1 -13%
COc1ccc(-c2cc(=O)c3c(O)cc(O[C@@H]4O[C@H](CO[C@@H]5O[C@@H](C)[C@H](O)[C@@H](O)[C@H]5O)[C@@H](O)[C@H](O)[C@H]4O)cc3o2)cc1O -1.48%
COc1ccccc1N1CCN(C(=O)C2CCN(S(=O)(=O)c3cn(C)cn3)CC2)CC1 -0.303%
COc1ccccc1NC(=O)CN1C(=O)C(c2ccc(F)cc2)=NC12CCCCC2 -26.5%
COc1ccc(C(CNC(=O)c2oc3cc(C)c(C)cc3c2C)N2CCCCC2)cc1 (configuration not stated) 6.25%
Cc1ccc(Nc2nc(N)nc(CSc3nc4ccccc4s3)n2)cc1 -21.2%
CCn1cc(C(=O)N2CCN(c3ccccc3)CC2)c(=O)c2cc(S(=O)(=O)N(C)C)ccc21 15.2% [at 11.5 µM, percent change from vehicle, -100% = no light]
Cc1c2cnn(CC(=O)NCc3ccc(Cl)cc3)c(=O)c2c(C)n1Cc1ccc(F)cc1 -24.3%
O=C(Cc1ccc(F)cc1)NCCc1csc2nc(-c3ccccc3F)nn12 -10.9%
COc1ccc(CCNS(=O)(=O)c2c(C)nc3sccn3c2=O)cc1OC -13.4%
Cc1ccccc1Nc1nn2c(=O)c3ccc(C(=O)NCc4cccs4)cc3nc2s1 -20.6%
Cc1cc(NS(=O)(=O)c2ccc(NC(=O)COc3ccccc3Br)cc2)no1 -9.85%
Cc1cc(C)cc(NC(=O)CSc2ccc(-c3cccs3)nn2)c1 -30.6%
COc1ccc(CCNc2ncnc3c2cnn3-c2ccc(C)c(Cl)c2)cc1 8.1%
Cc1ccc(NS(=O)(=O)c2ccc3oc(=O)c4ncn(C)c4c3c2)cc1C -13.1%
O=C(CCC1N=C2c3ccccc3N=C(SCc3ccc(Cl)cc3)N2C1=O)NCc1cccs1 (configuration not stated) 3.77%
COc1ccc(OCC(O)Cn2c(=N)n(CCN3CCCCC3)c3ccccc32)cc1 (configuration not stated) -12.3%
O=C(CCc1ccccc1)NC1CC(=O)N(c2cccc(F)c2)C1 (configuration not stated) -0.903%
COc1ccccc1C(=O)n1nc(-c2ccccc2)nc1NCc1ccc(Cl)cc1 -1.58%
CCC(=O)N1CCc2cc(S(=O)(=O)NC(CC(C)C)C(=O)Nc3cccc(C)c3C)ccc21 (configuration not stated) 0.481%
CN(C)c1ccc(CNC(=O)CN2C(=O)C3CCCCN3c3ccc(C(=O)N4CCCC4)cc32)cc1 (configuration not stated) -15.4%
Cc1ccc(S(=O)(=O)C(CNC(=O)C(=O)NCCc2ccc(Cl)cc2)c2ccco2)cc1 (configuration not stated) -23.5%
CCC(C)NC(=O)c1cc2n(n1)CCCN(Cc1ccc(C)cc1)C2=O (configuration not stated) -7.34%
Cc1ccc(N2CCN(C(=O)c3cccn4c(=O)c5ccc(Cl)cc5nc34)CC2C)cc1 (configuration not stated) 2.01%
CCOC(=O)c1ccccc1NC(=O)N1CCC(CN2CCOCC2)CC1 -8.84%
CCN1CCN(C(c2ccccc2Cl)c2sc3nc(-c4ccco4)nn3c2O)CC1 (configuration not stated) -5.04%
CCOc1ccc(NC(=O)Cn2nc3c(cc2=O)CC(C)CC3)cc1 (configuration not stated) -5.13%
CCOC(=O)c1[nH]c2c(c1Cc1ccccc1)C(=O)CC(c1ccccc1)C2 (configuration not stated) -15.9%
Cc1ccc(-c2noc(-c3nnn(CC(=O)Nc4ccc(C)c(Cl)c4)c3N)n2)cc1 5.87%
CC(C)Oc1ccc(C(=O)NCC(c2ccc(N(C)C)cc2)N2CCc3ccccc32)cc1 (configuration not stated) -21.6%
CCOc1ccc(N(CC(=O)Nc2ccc(OC)cc2)S(=O)(=O)c2ccc(Cl)cc2)cc1 1.12%
O=C(Nc1ccc(Br)cc1)c1cc(S(=O)(=O)NC2CCCC2)ccc1F -28.3%
Cc1ccc2c(C)c(C(=O)N(Cc3ccc(N(C)C)cc3)Cc3ccco3)oc2c1C -20%
O=C(CCSCCc1ccccn1)Nc1ccc(Cl)cc1 -8.56%
CCn1c(=O)c2sccc2n2c(CCC(=O)Nc3ccc(F)cc3)nnc12 -14.3%
COc1ccc2c(c1)c(N1CCCC1=O)c(C(=O)Nc1cc(C)c(Cl)cc1OC)n2C -6.22%
CCN(c1ccccc1)S(=O)(=O)c1nnc(NC(=O)C2CCCCC2)s1 -11%
Cc1ccc2c(c1)cc1c(=O)n(Cc3ccccc3Cl)nc(C)n12 -0.915%
CC(=O)Nc1ccc(C)cc1-c1nc2ccccc2n(CC(=O)c2ccc(C)c(C)c2)c1=O -15.8%
